This is one part of the list.

The test system of this assay is PfAP2-HC AP2 domain (GST-tagged). Description: gcPBM binding intensity (ln(normalized median fluorescence intensity)); higher = stronger DNA binding. In a few lines: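 After 1 h on an Agilent 4 × 180k array of primer-extended double-stranded 36-bp intergenic genomic probes and negative controls, bound GST-tagged P. falciparum DNA-binding domains were detected with Alexa488 anti-GST antibody and scanned at 488 nm. The domains had been expressed in E. coli, and binding took place in 1× PBS with 1% milk, 0.2 mg/ml BSA, 0.5% salmon testes DNA and 0.03% Triton X-100. Binding intensity is the highest Masliner-normalised natural-log median intensity across replicate spots of either probe orientation.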
With “TATAATCAATATGTAACACACAAAAGTTATATACTT [CACACA_site7368]”, the “gcPBM binding intensity (ln)” value worked out at 9.8.

On to “AATCTTAAAAATATATGTACTAAAAAAAAAAAAAAT [XGTACX_site6195]”, for which the “gcPBM binding intensity (ln)” value was 9.5.

“TAATAATAAAAATAAACACACATATATATGTATATA [CACACA_site2853]”: the “gcPBM binding intensity (ln)” value was determined as 9.77.

In the case of “CACTATATAAGAACCTGTACTCAATTTTGCAATATA [XGTACX_site7238]”, the “gcPBM binding intensity (ln)” value is 9.58.

For “ATATTTATTTATTTATGTACGCACACAGTTGATATT [XGTACX_site5808]”, the “gcPBM binding intensity (ln)” value was 10.1.

With “AAATTATATTCAAGTGCATGTAACTTATTATTATAT [TGCATGCA_site526]”, the “gcPBM binding intensity (ln)” value is 9.67.

In the case of “TATATTTTCCTGCAAACACACATATAAATGTGTAGA [CACACA_site533]”, the “gcPBM binding intensity (ln)” value came out at 9.61.

Turning to “TCATATATTTTAATATGTACACATTTTTTTGGTATA [XGTACX_site8695]”, the “gcPBM binding intensity (ln)” value is 9.58.

Consider “TACAGACTAAAATACACACACACACGCACATATATA [CACACA_site7875]”, for which the “gcPBM binding intensity (ln)” value was determined as 10.7.

Turning to “TTTTTCTTTATTAGCACACATAATATTATATATGTG [CACACA_site2629]”, the “gcPBM binding intensity (ln)” value was 9.8.

In the case of “TACATTTATATATATACACACACACTAATAAAAAAA [CACACA_site8845]”, the “gcPBM binding intensity (ln)” value worked out at 10.3.

Turning to “TAAATACAGATATATACACACATATATATATTTTAT [CACACA_site5970]”, the “gcPBM binding intensity (ln)” value came out at 9.93.

As for ATATGTATATATAAGGTGCAGAAAGGTGGGCAAAAG, the “gcPBM binding intensity (ln)” value was determined as 10.

With “ATAAAAAAGAAACAAACACACATACATACAAACAAA [CACACA_site4256]”, the “gcPBM binding intensity (ln)” value was 10.3.

“CTTTTGTCATTCTTTTGTACACAGTTTGAAATATGT [XGTACX_site1457]”: the “gcPBM binding intensity (ln)” value was determined as 10.

“AAATAGAGAAATACAAGTACATATCAAACCAATATA [XGTACX_site1192]”: the “gcPBM binding intensity (ln)” value turned out to be 10.2.

In the case of “ATAATAAATAAATAATGTACATATGAAAGAATAAAT [XGTACX_site8355]”, the “gcPBM binding intensity (ln)” value is 9.95.

Consider ATTCTTTTAAAATAGGTGCTAAAAATAATATGTTAC, for which the “gcPBM binding intensity (ln)” value was 9.47.

With “TTCACCAGTTGGTAAACATGCAATTTTCCATACAAG [TGCATGCA_site267]”, the “gcPBM binding intensity (ln)” value amounted to 9.34.

With “ATATAAATACATAAATGTACTTACCATTTAAATATG [XGTACX_site5254]”, the “gcPBM binding intensity (ln)” value worked out at 9.74.

Regarding “AAAAAAAACGGACACACACACATACCCATACATACA [CACACA_site5574]”, the “gcPBM binding intensity (ln)” value was 10.5.

As for “ATTATTTGTTTAATGAGTACGAAGACAAATTTTACC [XGTACX_site5223]”, the “gcPBM binding intensity (ln)” value came out at 9.54.

Regarding “AAAGGAAAAAAAAGCACACACAATATTACTTGAAAT [CACACA_site2588]”, the “gcPBM binding intensity (ln)” value was determined as 10.3.

As for “TATATACACAGACACACACACACATACACGCACATA [CACACA_site6909]”, the “gcPBM binding intensity (ln)” value is 10.5.

In the case of “GTACTATACAAAGATGATAATCAATATATATATATA [XGTACX_negctrl_site264]”, the “gcPBM binding intensity (ln)” value worked out at 9.58.

As to “AAAGAAAGAAGAAATTGTACATAATAAATAAGTAAA [XGTACX_site3311]”, the “gcPBM binding intensity (ln)” value was found to be 9.63.

Turning to “ATATAAACAATATTTTGTACATAATTTTATGAGCAT [XGTACX_site6933]”, the “gcPBM binding intensity (ln)” value stood at 9.68.

As for “GCATATGTTTATTGCACACACCAAAAAGAAAACATA [CACACA_site4384]”, the “gcPBM binding intensity (ln)” value turned out to be 9.95.

On to “AAAAAGAACAGAAACACACAAATAAAATAAAATTGT [CACACA_site6921]”, for which the “gcPBM binding intensity (ln)” value was 10.3.

Take “AAATGTTAATAAAGGTGTACACAAAATAAAAAAAAT [XGTACX_site463]”: the “gcPBM binding intensity (ln)” value worked out at 10.5.

On to “TTAATTGACATAAAAAGTACTCATATAGATATGCAC [XGTACX_site6391]”, for which the “gcPBM binding intensity (ln)” value came out at 9.54.

“TAATTTTATTTTATATGTACGCAATACAAATATATA [XGTACX_site8461]”: the “gcPBM binding intensity (ln)” value amounted to 9.46.

Consider “ATAAAAATAAAAAGTGTGCACACAAAAATATATATA [GTGCAC_site9931]”, for which the “gcPBM binding intensity (ln)” value was found to be 10.5.

In the case of “TTACCAAAAAAATGTAGTACAATATAATATTATTTA [XGTACX_site5750]”, the “gcPBM binding intensity (ln)” value is 9.5.

For AATATATATATTTAAGTGCATAATATTGTAATATTA, the “gcPBM binding intensity (ln)” value turned out to be 9.74.

For “ATATATTATGAAGACTGTACATTTACATGAAAAAAA [XGTACX_site7203]”, the “gcPBM binding intensity (ln)” value amounted to 9.65.

For the sequence “CACCCCCACAGACACACACACACACCCATATATATA [CACACA_site364]”, the “gcPBM binding intensity (ln)” value came to 10.6.

As to “AAGATTCATTGGTTCTGTACAAAATAAACACTATAA [XGTACX_site834]”, the “gcPBM binding intensity (ln)” value was 9.52.

With “ATATATAATTAATTTTGTACACATAAAAAAAAAAAT [XGTACX_site6647]”, the “gcPBM binding intensity (ln)” value amounted to 9.69.

On to “AGAGAGAAAGCTATAACATGCAACAATTTTTTGAAA [TGCATGCA_site514]”, for which the “gcPBM binding intensity (ln)” value turned out to be 9.57.

Consider “ATATTTGCATGTGGTAGTACATAACATTCTTTTACA [XGTACX_site8194]”, for which the “gcPBM binding intensity (ln)” value came out at 9.75.

For “ATATCTTATAATACGGTGCACTTGACATGAACAACT [GTGCAC_site9987]”, the “gcPBM binding intensity (ln)” value came out at 9.68.

As for “CTTCAATTAAAATTCACACATATAAATTAAAATATT [CACACA_site6129]”, the “gcPBM binding intensity (ln)” value came to 9.43.

Turning to “ACATATTATATATGTGTGCACATATATATATATTTA [GTGCAC_site9591]”, the “gcPBM binding intensity (ln)” value was determined as 10.1.

Consider “TTTATTTAAAAAGTTTGTACATATATATTATTTTGA [XGTACX_site6040]”, for which the “gcPBM binding intensity (ln)” value is 9.45.
